Test results: the antibiotic and cytotoxicity screens of Wong et al. (2023)
The other results are listed elsewhere or left out.

Key:
[1] = system: HSkMC (human skeletal muscle cells); test: cytotoxicity call (relative viability < 0.9); details: 10 µM
[2] = system: HepG2; test: cytotoxicity call (relative viability < 0.9); details: 10 µM
[3] = system: S. aureus RN4220; test: growth inhibition call (relative growth <= 0.2); details: 50 µM

O=C(O)c1cnns1
inactive: cytotoxicity call [1] | cytotoxicity call [2] | growth inhibition call [3]

NCc1nccs1
inactive: cytotoxicity call [1] | cytotoxicity call [2] | growth inhibition call [3]

Cc1ccc(S(=O)(=O)N(C)C[C@@H]2OCCCC[C@H](C)Oc3ccc(NC(=O)Nc4cccc5ccccc45)cc3C(=O)N([C@@H](C)CO)C[C@H]2C)cc1
inactive: cytotoxicity call [1] | cytotoxicity call [2] | growth inhibition call [3]

Cc1noc(C)c1S(=O)(=O)Nc1ccc2c(c1)CC(=O)N([C@@H](C)CO)C[C@@H](C)[C@@H](CN(C)CC1CC1)O2
inactive: cytotoxicity call [1] | cytotoxicity call [2] | growth inhibition call [3]

C[C@H]1CN([C@@H](C)CO)C(=O)c2cc(C#CC3CC3)cnc2O[C@H]1CN(C)S(=O)(=O)c1cccc(F)c1
inactive: cytotoxicity call [1] | cytotoxicity call [2] | growth inhibition call [3]

C[C@@H]1CN([C@@H](C)CO)S(=O)(=O)c2ccc(-c3ccccc3F)cc2O[C@@H]1CN(C)S(C)(=O)=O
inactive: cytotoxicity call [1] | cytotoxicity call [2] | growth inhibition call [3]

C[C@@H]1CN([C@@H](C)CO)C(=O)c2cc(NC(=O)Nc3ccc4c(c3)OCO4)ccc2O[C@@H](C)CCCCO[C@@H]1CN(C)C(=O)Nc1ccc2c(c1)OCO2
inactive: cytotoxicity call [1] | cytotoxicity call [2] | growth inhibition call [3]

C[C@@H]1CN([C@@H](C)CO)C(=O)c2cc(-c3ccncc3)cnc2O[C@@H]1CN(C)S(=O)(=O)c1ccc(F)cc1
inactive: cytotoxicity call [1] | cytotoxicity call [2] | growth inhibition call [3]

COc1ccccc1CNC(=O)C[C@@H]1CC[C@H]2[C@@H](COC[C@@H](O)CN2C(=O)Nc2ccc(Cl)cc2)O1
inactive: cytotoxicity call [1] | cytotoxicity call [2] | growth inhibition call [3]

O=C(C[C@H]1C[C@@H]2c3cc(NC(=O)C4CCOCC4)ccc3O[C@@H]2[C@@H](CO)O1)NCCN1CCCCC1
inactive: cytotoxicity call [1] | cytotoxicity call [2] | growth inhibition call [3]

COc1ccccc1C#Cc1cnc2c(c1)C(=O)N([C@@H](C)CO)C[C@@H](C)[C@@H](CN(C)C(=O)CC1CC1)O2
inactive: cytotoxicity call [1] | cytotoxicity call [2] | growth inhibition call [3]

CNC(=O)[C@H]1O[C@H](n2cnc3c(NCc4cccc(I)c4)nc(Cl)nc32)[C@@H](O)[C@@H]1O
inactive: cytotoxicity call [1] | cytotoxicity call [2] | growth inhibition call [3]
